# Data published in PubChem BioAssay AID463173 (ICCB-Longwood Screening Facility, Harvard Medical School, 2010).
# About 4,300 (8.3%) of roughly 52,000 compounds were called active. Cut-off read from the data, not from the text of the source: active = survival mostly below about 52% (no sharp cut-off); inactive = mostly above about 56%. This is one part of the list.
# Test system: DeltatarO mutant
# Assay: S. aureus survival, RN4220 and DeltatarO strains – OD600, teichoic acid synthesis inhibitors, primary screen (AID 463173)
# Settings: S. aureus RN4220 wild type/DeltatarO growth, OD600, 18 h, active compounds read low, screened at 18.75 µg/mL (by protocol)
row,SMILES,survival
1,Cc1cccc(-n2ncc(C(=O)N3CCN(Cc4ccccc4)CC3)c2C2CCN(C(=O)OC(C)(C)C)CC2)c1,inactive: 75%
2,CCOc1ccc(N(C)S(=O)(=O)c2c(C(=O)N3CCC(C)CC3)c(C)n(C)c2C)cc1,inactive: 102%
3,COc1ccc(Cn2c(CCC(=O)Nc3ccc(C)cc3)nc3cccnc32)cc1,inactive: 105%
4,CCOc1ccccc1NC(=O)N1c2ccccc2Sc2ccccc21,inactive: 55%
5,Cc1cc(C)n(-c2nc3cc(Cl)ccc3nc2Nc2ccc(C)c(F)c2)n1,inactive: 91%
6,O=C(CN(Cc1ccc2c(c1)OCO2)C(=O)c1cnsn1)NC1CCCC1,inactive: 89%
7,CCn1ccc2cc(S(=O)(=O)N3CCC(C(=O)NCc4cccc(Cl)c4)CC3)ccc21,inactive: 89%
8,CCOC(=O)c1sc(N/C=C(\C#N)c2nc3cc(Cl)ccc3o2)c(C#N)c1C,inactive: 81%
9,Cc1ccc(-n2ncc(C(=O)NCCN3CCCC3)c2C2CCN(C(=O)OC(C)(C)C)CC2)cc1,inactive: 107%
10,O=C(NC1CCN(C(=O)Nc2cccc(F)c2)CC1)c1ccco1,inactive: 88%
11,Cc1cccc(NC(=O)Cn2ncc3c4ccccc4n(Cc4ccccc4)c3c2=O)c1C,inactive: 89%
12,Cc1ccc(S(=O)(=O)CCC(=O)Nc2ccc(OC(F)(F)F)cc2)cc1,inactive: 72%
13,CCc1ccccc1NC(=O)Cn1c(=O)n(CCCCCC(=O)NCc2ccc(C)cc2)c(=O)c2sccc21,inactive: 66%
14,O=C(c1ccc2c(c1)N(Cc1ccccc1F)C(=O)c1ccccc1S2(=O)=O)N1CCc2ccccc21,inactive: 80%
15,CCC(Sc1nc2ccncc2[nH]1)C(=O)Nc1cc(Cl)ccc1C (stereo unspecified),inactive: 136%
16,COc1cc(Cl)c(C)cc1NC(=O)CSc1nc2c(c(=O)[nH]1)CCC2,inactive: 63%
17,Cc1nn(-c2ccccc2)c2c1cc1c(=O)[nH]c(=O)nc-1n2-c1cccc(Cl)c1,inactive: 80%
18,COc1ccccc1/C=C/c1nc(C#N)c(N2CCN(C)CC2)o1,inactive: 92%
19,Cc1ccc(CNC(=O)C2CCN(S(=O)(=O)c3cccc4nonc34)CC2)cc1,inactive: 65%
20,COc1ccccc1NC(=O)CSc1nnc(NC(=O)NC2CCCCC2)s1,inactive: 83%
21,Oc1ccc(CNc2ccccc2C(F)(F)F)c2cccnc12,inactive: 124%
22,Cc1cc(=O)c2cc(C(=O)Nc3ccc(C)c(C)c3)ccc2[nH]1,inactive: 89%

row,SMILES,survival
1,Cc1ccc2oc(C(=O)Nc3ccc(S(=O)(=O)N(C)c4ccccc4)cc3)cc(=O)c2c1,inactive: 99%
2,O=C(Nc1ccccc1)NC1CCN(CCCN2C(=O)c3ccccc3C2=O)CC1,inactive: 108%
3,CCc1ccc(NCc2cc3cc4c(cc3n(CC(=O)Nc3ccccc3OC)c2=O)OCCO4)cc1,inactive: 87%
4,COc1ccc(C(=O)N2CCC(c3nc4ccccc4s3)CC2)cc1Cl,inactive: 62%
5,Cc1cc(NC(=O)Nc2nnc(N(C)C3CCCCC3)s2)ccc1Br,inactive: 72%
6,Cc1ccc(N2CC(c3nc(-c4ccc(Cl)cc4)no3)CC2=O)cc1F (stereo unspecified),inactive: 98%
7,Cc1cc(N2CCC(C(=O)Nc3ccc(F)cc3C)CC2)n2nc(C)c(-c3ccc(Cl)cc3)c2n1,inactive: 96%
8,O=C(NCCc1ccc(Cl)cc1)c1ccco1,inactive: 98%
9,Cc1cc(Br)ccc1NC(=O)C1CCCN(S(=O)(=O)c2cccc3nonc23)C1 (stereo unspecified),inactive: 70%
10,CCOC(=O)c1cccc(NC(=O)CC2C(=O)N(c3ccc(Cl)cc3)C(=O)N2C2CCCC2)c1 (stereo unspecified),inactive: 88%
11,FC(F)(F)c1cccc(-n2nnnc2-c2ccccc2)c1,inactive: 107%
12,CS(=O)(=O)N1CCC(c2nc(-c3ccc(S(=O)(=O)NCC4CCCO4)cc3)no2)CC1 (stereo unspecified),inactive: 85%
13,CCOc1ccccc1NC(=O)CSc1nc2c(sc3ccccc32)c(=O)n1CCCC(=O)NC1CCCC1,inactive: 65%
14,COc1cc(NC(=O)C2CCN(S(=O)(=O)c3ccc4c(c3)CCCC(=O)N4)CC2)cc(OC)c1,inactive: 89%
15,CCOC(=O)c1c(S(=O)(=O)N2CCCC(C(=O)NCc3ccccc3Cl)C2)c(C)n(C)c1C (stereo unspecified),inactive: 122%
16,CCc1cccc(CC)c1NC(=O)C1CCC(CNS(=O)(=O)c2cccc3nsnc23)CC1 (stereo unspecified),inactive: 73%
17,COc1ccc2cc3cc(C(=O)Nc4cc(C)c(Cl)cc4OC)oc3nc2c1,inactive: 96%
18,CC(=O)c1cccc(NS(=O)(=O)c2cc(-c3onc(C)c3C)ccc2C)c1,inactive: 83%
19,COc1cc(Cl)c(NC(=O)c2cc(S(=O)(=O)N3CCCCC3)c[nH]2)c(OC)c1,inactive: 119%
20,COc1ccc(S(=O)(=O)NCCc2sc(-c3cccnc3)nc2C)c(F)c1,inactive: 72%
21,CCc1ccc(C2c3c(oc4ccc(F)cc4c3=O)C(=O)N2CCc2ccc(OC)cc2)cc1 (stereo unspecified),inactive: 94%
22,COc1ccc(CNCCCSc2nnnn2-c2ccccc2)cc1,inactive: 51%

row,SMILES,survival
1,Cc1ccc(CNC(=O)Cn2c(=O)ccc3cc(S(=O)(=O)N4CCC(C)CC4)ccc32)cc1,active: 37%
2,COc1ccc(-c2cc(C(=O)NC(C)c3ccccc3)c3cc(C(C)C)ccc3n2)cc1 (stereo unspecified),inactive: 101%
3,CCN(CC)CCNC(=O)C(=O)NCC(c1cccnc1)N1CCN(c2ccc(F)cc2)CC1 (stereo unspecified),inactive: 79%
4,O=C(Nc1ccccc1C(F)(F)F)c1cc(-c2ccc3c(c2)OCCO3)on1,inactive: 117%
5,COc1cccc(CNC(=O)c2ccc(CNS(=O)(=O)c3ccc(C)cc3)cc2)c1,inactive: 74%
6,CCN(c1ccccc1)S(=O)(=O)c1nnc(NC(=O)c2ccccc2)s1,active: 38%
7,CNC(=O)c1ccc(CN2CCc3ccccc3C2)cc1,inactive: 100%
8,COCCN1C(=O)C(=O)/C(=C(/O)c2ccccc2)C1c1ccccc1 (stereo unspecified),inactive: 102%
9,Cc1cccc(N2CCN(C(=O)c3cnn(-c4ccccc4Cl)c3C3CCN(C(=O)OC(C)(C)C)CC3)CC2C)c1 (stereo unspecified),inactive: 93%
10,O=C(CCN1C(=O)c2ccccc2Sc2ncccc21)Nc1ccc(F)cc1F,inactive: 77%
11,COc1ccc(C2NC(=O)NC(C)=C2C(=O)Nc2ccccc2)cc1OC (stereo unspecified),inactive: 116%
12,COc1cccc(C(=O)N2c3ccc(C)cc3C(C)(c3ccccc3)CC2(C)C)c1 (stereo unspecified),active: -5%
13,Cc1ccccc1C(=O)Nc1sc2c(c1C(=O)N1CCCCC1)CCC(C)C2 (stereo unspecified),inactive: 49%
14,Cc1ccc(CC(=O)Nc2ccc3c(c2)N(C)C(=O)c2ccccc2S3)cc1,inactive: 117%
15,Cc1ccccc1C(=O)N/N=C1/SCC(=O)N1Cc1ccc2c(c1)OCO2,inactive: 114%
16,COc1cc2c(cc1OC)n(CC(=O)c1cccc(Cl)c1)c(=O)n1nc(CCn3nc(C)cc3C)nc21,inactive: 80%
17,Cc1ccc(Nc2sc(C(=O)c3ccccc3)c(N)c2C(=O)Nc2ccc(Cl)cc2)cc1,inactive: 55%
18,CCOCCCNC(=O)c1cc(Sc2cccc(Cl)c2)nc2ccccc12,inactive: 74%
19,Cc1ccc(NC(=O)Cn2c(=O)n(Cc3nc(C)no3)c(=O)c3cc4c(cc32)OCO4)c(C)c1,inactive: 83%
20,CC(C)c1ccc(NC(=O)CSc2nc(=O)n(Cc3ccccn3)c3c2CCC3)cc1,inactive: 116%
21,N#Cc1nc(COc2cccc(Cl)c2)oc1NCCc1ccccc1,active: 39%
22,CCCn1c(SCc2nc(-c3ccccc3OCC)no2)nnc1-c1ccc(Cl)cc1,active: 43%

row,SMILES,survival
1,COC(=O)CSc1nnc(-c2ccco2)n1Cc1ccco1,inactive: 96%
2,CCOc1ccccc1C(=O)N(Cc1cc(OC)c(OC)c(OC)c1)c1ccccn1,inactive: 90%
3,CCOC(=O)c1ccc(NC(=O)C(Cc2ccccc2)N2Cc3ccccc3C2=O)cc1 (stereo unspecified),inactive: 77%
4,Cc1ccc(-c2nn3c(=O)cc(CN4CCN(C(=O)/C=C/c5ccccc5)CC4)nc3s2)cc1,inactive: 68%
5,CCCOc1ccc(C(=O)Nc2ccc3oc(-c4cccc(Cl)c4Cl)nc3c2)cc1,inactive: 80%
6,CCOC(=O)c1ccc(NC(=O)CSc2cn(CC(=O)N3CCCC3)c3ccccc23)cc1,inactive: 66%
7,Nc1nc2c(ccc3[nH]c(=O)c(=O)[nH]c32)s1,inactive: 90%
8,Cc1ccc(-n2nc3c(N4CCCC(C(=O)NCc5ccc(Cl)cc5)C4)nnc(C)c3c2C)cc1 (stereo unspecified),inactive: 89%
9,COC(=O)c1ccc2c(c1)N(CC(=O)Nc1ccc(OC)c(Cl)c1)C(=O)c1ccccc1S2,inactive: 68%
10,O=C(CCS(=O)(=O)c1nc(-c2cccs2)cc(C(F)(F)F)n1)Nc1cc(Br)ccc1O,active: 15%
11,CC1=C(C(=O)Nc2ccc(C)cc2C)C(c2ccc([N+](=O)[O-])cc2)n2ncc(C(=O)Nc3ccc(F)cc3)c2N1 (stereo unspecified),inactive: 101%
12,Cc1ccc(-n2c(=O)c3c(cnn3C)n(CC(=O)Nc3ccc(C)cc3C)c2=O)cc1,inactive: 90%
13,CN(c1ccc(F)cc1)S(=O)(=O)N1CCCC(C(=O)NCc2cccc(Br)c2)C1 (stereo unspecified),inactive: 72%
14,Cc1ccccc1Cc1c(C)nc2nc(SCC(=O)N(C)c3ccccc3)nn2c1C,inactive: 78%
15,Cc1c(C(=O)N2CCC(C)CC2)c(S(=O)(=O)NCc2ccc(Cl)cc2)c(C)n1C,inactive: 128%
16,CCN(CC)c1ccc2cc(-c3nc(-c4cccs4)no3)c(=O)oc2c1,inactive: 83%
17,CC(=O)c1ccc(N2CCN(C(=O)CCC(=O)Nc3ccc4nc(N5CCCCC5)cc(C)c4c3)CC2)cc1,inactive: 73%
18,COC(=O)CNC(=O)C1CCN(S(=O)(=O)c2cccc3nsnc23)CC1,inactive: 92%
19,Cc1ccc(C(=O)c2c(N)c(C(=O)Nc3ccccc3Cl)c3ccccn23)cc1,inactive: 69%
20,CCOc1ccc(OCC(=O)NCCS(=O)(=O)N2CCN(c3ccccc3F)CC2)cc1,inactive: 71%
